Results: the supplement of paper PMC10126150
Sequences with one replicate were seen in a single cluster, so their values are uncertain.

Tested on: ATP
Assay: switch fluorescence ratio, 500 uM ATP over buffer (Cy3 cluster intensity, sum of 5 cycles each) (fold (ratio)); higher = stronger signal-on switching upon ATP binding; sequences stand for … in TCGTCGGCAGCGTCAGATGTGTATAAGAGACAGTTTTTTTTTTTTTTTTTTTTTTTTT…TC
Conditions: aptamer strand: ATP DNA aptamer (quencher-CACCTGGGGGAGTATTGCGGAGGAAGG + anchor), 100 nM annealed; ATP concentration: 500 uM; one replicate
In short: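 Clusters carrying Cy3-labelled switching strands on a modified Illumina MiSeq flow-cell were annealed to 100 nM quencher-labelled ATP aptamer and imaged in selection buffer. They were imaged again after 15 min with 500 uM ATP at 22 °C, over five buffer/ATP cycles with NaOH stripping and re-annealing in between. For each cluster, the fluorescence ratio is the summed Cy3 intensity of the target cycles divided by that of the buffer cycles, averaged per switch-domain sequence. Clusters outside 100-1000 RFU were left out.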
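Further: ATP exposure 15 min at 22 °C before imaging.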

Sequence	switch fluorescence ratio
GGGACTAACG	1.01
GTAAGAACTA	1.02
TCGGCGGGTA	1
GCTACCGCTT	1.13
AGGTAGCAG	0.938
TAGCTTTCA	0.992
CGGGCACTA	2.86
GGAAATTTGC	1.02
TTATGGCTGC	1.04
CGCTAAACCT	2.62
GATTGGGCGG	0.954
GGGAGTATCA	0.986
TTATTTCTCT	0.977
GTGGCAGTCG	1.08
GAAGTTATGG	0.943
AGATTGGAAA	0.984
AATCTGACTC	1.27
CTGCCCCGTT	1.49
GCTGTGGTGT	1.08
TCCGGCAACT	1.89
GGTCCCACGT	0.978
AAATGTAGCA	1.01

Sequence	switch fluorescence ratio
CGAATGGCAG	0.999
CCTCAGCATA	3.35
AGGATCGCCA	0.988
TGGCTGCGGT	1.01
ATTTATCGGT	0.999
TCATTCAAAT	1
GGTGATCCGT	0.962
TATGACGGGC	1.1
AACCGAGGGC	1.03
ATACTGATAC	1.27
TATGTGGCAT	1.01
TGAAAGTTAG	0.971
CGCGACGGCC	1.02
ATAGCAGCCT	1.08
GACCTAAAAC	0.98
CGGGTTCTCT	0.996
TTTGTATTA	1.04
TTAGCTTGA	0.973
ACCAAGATCA	1.04
TGAGTATAG	0.969
ATTGCTCAAA	0.98
CTGATAATGT	1.05

Sequence	switch fluorescence ratio
CGGCAAATCT	1.38
GGTAGAACAT	0.984
ACTTGGTGCC	1.02
GGTGAGTTTT	0.996
ATGCTAACAA	0.989
GAGCATTAAC	1.41
GACTGATTCA	1.01
TTCTGAAGAT	2.17
CAGAACGATA	1.06
TTTGGACTCT	0.964
GCGTAGACGC	1.05
TTGGTTAGTG	0.974
TGATTTTAAT	1.05
GGGCGTCAGC	1.01
TTTGGTATGC	0.925
AGGTGTATT	1.03
TATATAGA	0.998
CGGATTAGCT	0.998
CTTCCTGCCG	1.23
TTCCAAGAG	1.05
GTTACTTAAC	1.1
CCAGACCATT	1.04

Sequence	switch fluorescence ratio
TACTGAGGGT	0.981
CAGGTGTGTG	1.18
TTTTTCCTTC	1.12
TAAGGGTATT	0.973
GAATGAGAAC	1.01
AAAGCTTAAA	1.01
GGTGTGCGTA	1.07
ATCGCCCATG	1.07
GTAAATCGCG	0.981
GATTGCGAAG	0.999
TCCCTCCGTT	3.02
CTTCTATAAT	1.05
AGGCACTCTT	0.986
TCGGAAAGCG	1.07
GCACGAATCA	0.999
CGGCTTACCG	0.965
TCCAATTAAT	1.01
GGGCGTGGCC	1.05
TGCCGCCAGC	1.11
